Several values for one entry are separate records, joined by “and”; a condition that tells them apart may be missing. Equal entries are not always repeated. Hit rate of the full screen: of about 420,000 compounds, about 64,000 (15%) were called active. Inconclusive means that the source gave no clear call. Such entries were picked first, then a sample of the others. The call rests on the fitted dose curve; in most records, active means well fitted inhibition curve with a large enough effect; inconclusive means small, poorly fitted or top-dose-only effect; inactive means flat fitted curve, though single readings scatter. Potencies of inconclusive entries are doubtful fits and often do not repeat.
Assay: qHTS for Inhibitors of human tyrosyl-DNA phosphodiesterase 1 (TDP1): qHTS in cells in absence of CPT; further: nearly all actives have a fitted effect of over 55% in size
Settings: DT40 Tdp1-/- hTDP1 cells, no CPT, ATP luminescence, 48 h; activity change, negative = growth inhibition: at 46.2 µM (top of the series)
Outline: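 Luminescent ATP content (CellTiter-Glo) served as the growth readout. Knockout chicken DT40 cells expressing human TDP1 were exposed to compounds without camptothecin for a minimum 48 hr at 37 °C.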
On the % scale 0 is the no-effect control and ±100 the full control effect; potency means the concentration at half of the fitted maximal effect; tags describe the fitted curve by direction and shape.

Row | Compound | activity change, negative = growth inhibition | Potency
1 | COc1cc(/C=C/CNC[C@H]2O[C@@H](n3cnc(C(N)=O)n3)[C@H](O)[C@@H]2O)ccc1O | inactive: -8.27% | –
2 | CC(C)CC(=O)Nc1ccc(C(=O)COc2ccc(-c3nnco3)cc2)cc1 | – | active: 23.1 µM
3 | CC1CCCN(c2ccc(C(=O)NCc3cccs3)cn2)C1 (centres undefined) | – | inconclusive: 15.8 µM [inhibitor, single point]
4 | COC(=O)C1=C(N)Oc2cc(C)[nH]c(=O)c2C1c1ccccc1OC (centres undefined) | inactive: -16.7% | –
5 | CN(C)CCN(C(=O)c1ccc2ccccc2c1)c1nc2cc3c(cc2s1)OCCO3 | – | inconclusive: 29.1 µM [inhibitor, single point]
6 | C/C(=C\c1ccc(C(=O)O)cc1)c1ccc2c(c1)C(C)(C)CCC2(C)C | – | inconclusive: 0.517 µM [inhibitor, full curve, poor fit]
7 | COc1cccc(CNC(=O)CCNS(=O)(=O)c2ccc3c(c2)CC(C)N3C(C)=O)c1 (centres undefined) | – | inconclusive: 29.1 µM [inhibitor, single point]
8 | CCN(CC(=O)Nc1ccc(NC(C)=O)cc1)CC(=O)Nc1ccc(F)c(Cl)c1 | – | inconclusive: 29.1 µM [inhibitor, single point]
9 | C/C(=N\NS(=O)(=O)c1ccc(Br)cc1)c1ccncc1 | – | inconclusive: 20.6 µM [inhibitor, partial curve]
10 | Cc1cc(C)n(CCCNC(=O)c2ccc(C)o2)n1 | inactive: 2.14% | –
11 | N=c1oc2c3c4c(cc2cc1C(=O)Nc1ccccc1)CCCN4CCC3 | – | inconclusive: 29.1 µM [inhibitor, single point]
12 | Cc1cc(NC(=O)CSc2nc(C(C)C)nc3sc4c(c23)CCC(C)C4)no1 (centres undefined) | – | active: 23.1 µM
13 | COc1ccc(CNC(=O)CN(C(=O)CCC(=O)Nc2nccs2)c2ccc3c(c2)OCO3)cc1 | inactive: -23.9% | –
14 | COc1cc(/C=N/Nc2nc(N3CCCC3)nc(N3CCCC3)n2)ccc1O | – | inconclusive: 12.6 µM [inhibitor, partial curve, poor fit]
15 | O=[N+]([O-])c1ccc(N2CCN(c3ccc(F)cc3)CC2)nc1 | – | inconclusive: 14.6 µM [inhibitor, partial curve, poor fit]
16 | CS(=O)(=O)N(CC(=O)N1CCCCCC1)c1cccc([N+](=O)[O-])c1 | inactive: 6.66% | –
17 | CCc1c(C(=O)Nc2ncn(Cc3cccc(C)c3)n2)csc1C | – | inconclusive: 32.6 µM [inhibitor, partial curve, poor fit]
18 | CCCOc1cccc(C(=O)Nc2ccc(CN3CCOCC3)cc2)c1 | – | inconclusive: 29.1 µM [inhibitor, single point]
19 | CCC(Oc1ccccc1)C(=O)NC1CCSC1=O (centres undefined) | inactive: -1.36% | –
20 | Cn1cnnc1SCC(=O)NC1CCCN(Cc2ccccc2F)C1 (centres undefined) | inactive: 12% | –
21 | COc1ccc(-c2noc(N3CCC(C(=O)NCc4ccc(F)cc4)CC3)n2)cc1 | – | inconclusive: 20.6 µM [inhibitor, partial curve]
22 | CCCCCCOc1ccc(N2C(=O)CC(N3CCN(CCN=CC4C(=O)CC(C)(C)CC4=O)CC3)C2=O)cc1 (centres undefined) | – | active: 23.1 µM
23 | CCCc1c(C(=O)Nc2ccc(F)cc2F)cnn1-c1ccccc1 | – | inconclusive: 20.6 µM [inhibitor, single point]

Row | Compound | activity change, negative = growth inhibition | Potency
24 | Cc1ccc(Sc2nc3ccc(C)cn3c(=O)c2/C=N/O)cc1 | – | inconclusive: 1.16 µM [inhibitor, full curve]
25 | Cc1ccc(C)c(OCCC(=O)OCC(=O)N2CCN(S(=O)(=O)c3ccc(Cl)cc3)CC2)c1 | – | inconclusive: 18.4 µM [inhibitor, single point]
26 | CCOC(=O)c1cc(-c2ccccc2)n(CCC(=O)Nc2cc(OCC)ccc2OCC)c1C | – | inconclusive: 29.1 µM [inhibitor, single point]
27 | CN(C)S(=O)(=O)c1cccc(NC(=O)NCCCl)c1 | inactive: 0.623% | –
28 | COc1ccc(NC(=O)c2ccc(NC(=O)CCS(=O)(=O)c3cccs3)cc2)cc1OC | – | inconclusive: 23.1 µM [inhibitor, partial curve, poor fit]
29 | COc1cccc(OCc2cc(C(=O)NCc3ccccn3)no2)c1 | – | inconclusive: 18.4 µM [inhibitor, single point]
30 | O=C(NCc1csc(-c2cccs2)n1)Nc1ccc(C(F)(F)F)cc1 | – | inconclusive: 29.1 µM [inhibitor, single point]
31 | O=C(O)/C=C/C(=O)NCc1csc2ccccc12 | inactive: 6.97% | –
32 | CS(=O)(=O)N1CCCC(C(=O)Nc2cccc(F)c2)C1 (centres undefined) | inactive: 10.3% | –
33 | O=C(COc1ccc(Br)cc1)N1CCC(c2ccccc2)C1 (centres undefined) | – | inconclusive: 29.1 µM [inhibitor, single point]
34 | C[C@@H](C(=O)NC1CCN(Cc2ccccc2)CC1)N1C(=O)N2CCc3c([nH]c4ccccc34)[C@@]2(C)C1=O | – | inconclusive: 25.9 µM [inhibitor, single point]
35 | Cc1cc[n+](-c2nc3ccccc3nc2[N-]S(=O)(=O)c2cccs2)cc1C | inactive: -1.33% | –
36 | COCCn1nnnc1C(c1cc2cccc(C)c2[nH]c1=O)N1CCN(c2ccccc2F)CC1 (centres undefined) | – | inconclusive: 9.2 µM [inhibitor, partial curve]
37 | COc1ccc(CCn2c3c(c(=O)[nH]c2=S)CN(CC(C)C)CN3)cc1OC | – | inconclusive: 25.1 µM [inhibitor, single point]
38 | CCOC(=O)C1CCN(S(=O)(=O)c2cc(Br)cc3c2N(C(C)=O)C(C)C3)CC1 (centres undefined) | inactive: -24% | –
39 | COc1ccccc1CN(C)C(=O)c1cc(C)nc2ccccc12 | – | active: 16.4 µM
40 | Cc1ccc(S(=O)(=O)N2CCN(c3nc4ccccc4nc3-n3nc(C)cc3C)CC2)cc1 | – | inconclusive: 25.9 µM [inhibitor, single point]
41 | CCOC(=O)[C@]12CCC=C1N(Cc1ccccc1)C(=O)[C@H](CC(=O)NCc1cccs1)C2 | – | active: 23.1 µM
42 | O=C(NCc1ccc2[nH]c3c(c2c1)CCCC3)c1ccc(S(=O)(=O)N2CCCC2)cc1 | – | inconclusive: 29.1 µM [inhibitor, single point]
43 | CCN(C(=S)NCc1ccccc1)c1ccccc1 | inactive: 7.78% | –
44 | COc1ccccc1NC(=O)CSc1nc2c(oc3ccccc32)c(=O)n1C | – | inconclusive: 18.4 µM [inhibitor, single point]
45 | COc1ccc(-c2nc(CN(C)C(C)c3ccon3)c(C)o2)c(C)c1C (centres undefined) | – | inconclusive: 29.1 µM [inhibitor, single point]
46 | Clc1ccccc1OCCCOc1cccc2cccnc12 | – | inconclusive: 29.1 µM [inhibitor, single point]

Row | Compound | activity change, negative = growth inhibition | Potency
47 | COC(=O)CSc1nc2c(c(C3CC=CCC3)c1C#N)CCC2 (centres undefined) | – | inconclusive: 29.1 µM [inhibitor, single point]
48 | CCn1c2c(c3cc(C(=O)O)ccc31)CCCC2=O | – | active: 25.9 µM
49 | Cc1ccc(C)c(OCCC(=O)OCC(=O)Nc2cc(S(=O)(=O)N3CCOCC3)ccc2C)c1 | inactive: -11.6% | –
50 | Cc1ccsc1-c1nc(-c2ccccc2)c(-c2ccccc2)[nH]1 | – | inconclusive: 20.6 µM [inhibitor, single point]
51 | COc1ccccc1CCNC(=O)C(=O)Nc1cc2c3c(c1)CC(=O)N3CCC2 | – | inconclusive: 23.1 µM [inhibitor, single point]
52 | O=C(CCn1ccc2ccccc21)NC1CCCc2ccccc21 (centres undefined) | – | inconclusive: 29.1 µM [inhibitor, single point]
53 | CCOC(=O)C1CCCN(c2nc3ccccc3nc2C(C#N)C(=O)NCc2ccccc2)C1 (centres undefined) | – | active: 9.2 µM
54 | Cc1ccc(CNC(=O)c2ccccc2SCC(=O)NCC2CCCCC2)cc1 | – | inconclusive: 29.1 µM [inhibitor, partial curve, poor fit]
55 | Cc1ccc(NS(=O)(=O)c2cc(C(=O)OCC(=O)NCC3CCCO3)ccc2C)cc1 (centres undefined) | inactive: -4.66% | –
56 | Cc1noc(C)c1COc1ccc(C(=O)OC(C)C(=O)Nc2ccc(S(=O)(=O)N3CCOCC3)cc2)cc1 (centres undefined) | – | inconclusive: 29.1 µM [inhibitor, single point]
57 | Cc1cc2nnc(SCC(=O)Nc3ccc(Cl)cc3)n2c(N)n1 | inactive: -10.9% | –
58 | COc1cc(/C=C(/C#N)C(=O)c2c(C)[nH]c3ccccc23)ccc1OCC#N | – | inconclusive: 23.1 µM [inhibitor, single point]
59 | c1ccc2sc(NC3=NCN(Cc4ccc5c(c4)OCO5)CN3)nc2c1 | – | inconclusive: 29.1 µM [inhibitor, single point]
60 | Cc1ccc(C)n1-c1ccc(-c2nnc3n2CCCCC3)s1 | inactive: -27% | –
61 | COc1ccc(CC(=O)NCCS(=O)(=O)N2CCN(c3ccccc3F)CC2)cc1OC | – | inconclusive: 11.6 µM [inhibitor, partial curve]
62 | Cc1ccc(C(=O)Nc2ccccc2C(=O)OCc2cc(=O)n3nc(C(C)C)sc3n2)cc1 | – | inconclusive: 18.4 µM [inhibitor, single point]
63 | Cc1ccc(C)c(NC(=O)CN(C)S(=O)(=O)c2cccc3cccnc23)c1 | – | inconclusive: 20.6 µM [inhibitor, single point] and inconclusive: 29.1 µM [inhibitor, single point]
64 | Cn1cccc1/C=N/NC(=O)Cc1cccc2ccccc12 | – | active: 11.6 µM
65 | Cc1c(Cl)ccc2sc(NC(=O)c3ccco3)nc12 | – | inconclusive: 23.1 µM [inhibitor, single point]
66 | Cn1cc(SCC(=O)NCc2ccc(F)cc2)c2ccccc21 | inactive: 1.19% | –
67 | Cc1cccc2sc(NC(=O)C3CCN(S(=O)(=O)c4cc([N+](=O)[O-])ccc4Cl)CC3)nc12 | – | active: 16.4 µM
68 | COC(=O)c1cnc(Oc2ccc(NC(=O)NC(=O)c3c(F)cccc3Cl)cc2)cc1C(F)(F)F | – | active: 4.11 µM
69 | COc1ccccc1N1CCN(C(CNS(=O)(=O)c2ccc(C)cc2)c2cccnc2)CC1 (centres undefined) | – | active: 7.31 µM

From PubChem BioAssay AID686978 (National Center for Advancing Translational Sciences (NCATS), 2013)
